Measurements as given in PubChem BioAssay (NCATS).
The shares of active, inactive and inconclusive entries below differ from those in the screen. Potencies of inconclusive entries are doubtful fits and often do not repeat. Activity calls are given as the source filed them. Unless noted, calls follow the shape of the dose curve; as a rule, active = well fitted curve in the direction sought with a large enough effect; inconclusive = small, poorly fitted or top-dose-only effect, or another doubt; inactive = no such curve, though single readings can be large; an effect the other way counts as inactive or inconclusive.

Assays:
[1] = NS1 protein of Zika virus - qHTS assay to identify small molecule inhibitors in human HEK 293 cells (AID 1347053); also: nearly all actives have a fitted effect of over 55% in size
Summary of the method: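 Read-out is a two-antibody TR-FRET for ZIKV NS1, normalized between uninfected cells and infected cells. Compound added 1 h before MR766 infection at MOI 0.5; human HEK 293 cells incubated 24 h, 37 C.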

[2] = qHTS of pediatric cancer cell lines to identify multiple opportunities for drug repurposing: Primary screen for TC32 cells (AID 1347089); also: nearly all actives have a fitted effect of over 60% in size
Summary of the method: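 Luminescent CellTiter-Glo read-out of metabolically active TC32 cells after 48 h compound exposure. Primary: MIPE 11-point, 0.78 nM–46 µM; NPC 8-point, 0.59 nM–46 µM. Confirmatory: 11-point dilutions.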

[3] = qHTS of pediatric cancer cell lines to identify multiple opportunities for drug repurposing: Primary screen for SK-N-MC cells (AID 1347093); conditions: SK-N-MC viability, CellTiter-Glo luminescence, 48 h; activity change, negative = cytotoxic: at 46 µM (top of the series)
Summary of the method: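 Metabolically active cells were quantified by ATP-dependent luminescence (CellTiter-Glo, 15 min at room temperature) following 48 h treatment. Cells had been plated at 500-1,000 per well and settled for 5 h beforehand.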

[4] = qHTS of pediatric cancer cell lines to identify multiple opportunities for drug repurposing: Primary screen for U-2 OS cells (AID 1347096); also: nearly all actives have a fitted effect of over 50% in size
Summary of the method: (§1)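 Viability after 48 h compound treatment at 37C, 500-1,000 cells/well, read as ATP luminescence with CellTiter-Glo. Primary screens used 11-point (MIPE, 0.78 nM-46 µM) or 8-point (NPC, 0.59 nM-46 µM) final concentrations; follow-up screens used 11-point dilutions.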

[5] = qHTS of pediatric cancer cell lines to identify multiple opportunities for drug repurposing: Primary screen for LAN-5 cells (AID 1347100)
Summary of the method: as §1

[6] = qHTS of pediatric cancer cell lines to identify multiple opportunities for drug repurposing: Primary screen for Rh18 cells (AID 1347102); also: nearly all actives have a fitted effect of over 65% in size
Summary of the method: as §1

[7] = qHTS of pediatric cancer cell lines to identify multiple opportunities for drug repurposing: Primary screen for RD cells (AID 1347104); conditions: RD rhabdomyosarcoma viability, CellTiter-Glo luminescence, 48 h; activity change, negative = cytotoxic: at 46 µM (top of the series); also: nearly all actives have a fitted effect of over 55% in size
Summary of the method: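 Primary screen of approved and investigational compounds on cells in growth media at 37 degrees C, 5% CO2. MIPE set at 11-point and NPC set at 8-point dilutions; viability scored by ATP-based luminescence at 48 hours.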

[8] = qHTS of pediatric cancer cell lines to identify multiple opportunities for drug repurposing: Primary screen for Rh30 cells (AID 1347107); also: nearly all actives have a fitted effect of over 75% in size
Summary of the method: as §1

[9] = system: Zika virus NS2B-NS3 protease; test: Primary screen GU AMC qHTS for Zika virus inhibitors (AID 1347154); also: nearly all actives have a fitted effect of over 70% in size
Summary of the method: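 Unlinked Zika NS2B hydrophilic domain–NS3 protease complex at 25 nM in 10 mM Tris-HCl pH 8.0, 0.01% Tween 20, with an AMC peptide substrate. Fluorescence change (340/450 nm) over 15 min at room temperature, normalized to controls, fitted to 4-parameter Hill.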

[10] = A High-Content qHTS Against Drug Library for the Identification of Small Molecules that Inhibit DYT1 Early Onset Primary Dystonia-Associated Cell Pathology (AID 1645839; calls by dose curve)
Summary of the method: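 Cells were seeded and left for 24 h, then dosed with compound alongside tetracycline induction of mutant EGFP-TorsinA. They were incubated for 48 h, fixed in 4% paraformaldehyde, permeabilized and imaged for mislocalization (%pathology) and cell count.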

[11] = molecular target: Phospholipid hydroperoxide glutathione peroxidase GPX4 (Homo sapiens) (UniProt P36969); test: Primary qHTS Assay for Inhibitors of Recombinant Selenoprotein Glutathione Peroxidase 4 (GPX4) (AID 1845192); also: nearly all actives have a fitted effect of over 65% in size
Sequence of UniProt P36969 (P36969 whole entry, looked up): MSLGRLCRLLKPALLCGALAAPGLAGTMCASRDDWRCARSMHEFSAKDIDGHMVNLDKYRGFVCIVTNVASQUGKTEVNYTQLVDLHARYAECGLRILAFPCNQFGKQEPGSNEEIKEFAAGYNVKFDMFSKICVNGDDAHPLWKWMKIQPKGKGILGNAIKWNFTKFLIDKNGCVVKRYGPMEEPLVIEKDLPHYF
Summary of the method: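 Steps: GPX4 plus compound, 30 min RT; add GR/GSH/NADPH master mix; start with cumene hydroperoxide; read 340/450 nm fluorescence at 0 and 15 min. Finals were 200 nM GPX4, 1 mM GSH, 0.5 mM CHP, 0.5 mM NADPH, 100 nM GR.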

[12] = qHTS of pediatric cancer cell lines to identify multiple opportunities for drug repurposing: Confirmatory screen for LAN-5 cells (AID 1347113); also: nearly all actives have a fitted effect of over 65% in size
Summary of the method: as §1

[13] = qHTS of pediatric cancer cell lines to identify multiple opportunities for drug repurposing: Confirmatory screen for NB-EBc1 cells (AID 1347115); conditions: NB-EBc1 neuroblastoma cells, viability (cytotoxicity); activity change, negative = cytotoxic: at 45.9 µM (top of the series);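 also: cells exposed to compound for 48 h before the viability read; nearly all actives have a fitted effect of over 45% in size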
Summary of the method: as §1

[14] = qHTS of pediatric cancer cell lines to identify multiple opportunities for drug repurposing: Confirmatory screen for SJ-GBM2 cells (AID 1347116); also: nearly all actives have a fitted effect of over 60% in size
Summary of the method: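 Viability measured as metabolically active cells via CellTiter-Glo luminescence following 48 hours of compound exposure, 11-point dilutions in confirmatory testing. 500-1,000 cells/well plated 5 hours before dosing; controls were DMSO and 2.3 µM bortezomib.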

[15] = qHTS of pediatric cancer cell lines to identify multiple opportunities for drug repurposing: Confirmatory screen for RD cells (AID 1347124); conditions: RD rhabdomyosarcoma cell viability; activity change, negative = cytotoxic: at 45.9 µM (top of the series);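 also: cells exposed to compound for 48 h before viability readout; nearly all actives have a fitted effect of over 65% in size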
Summary of the method: as §1

[16] = qHTS of pediatric cancer cell lines to identify multiple opportunities for drug repurposing: Confirmatory screen for Saos-2 cells (AID 1347127); also: nearly all actives have a fitted effect of over 60% in size
Summary of the method: as §1

[17] = Quantitative High-Throughput drug screen in 47 multiple myeloma cell lines against the NCATS MIPE library collection: Karpas417_ECACC cell viability assay (AID 1918961); conditions: Karpas417 myeloma viability, CellTiter-Glo ATP luminescence, 48 h; series mostly up to 45.8 µM
Summary of the method: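 CellTiter-Glo luminescence (ATP) after 48 h compound exposure, 37C/5% CO2; 500 cells/well; MIPE 4.0 approved/investigational drugs pinned in; DMSO = 100%, media only = 0% viability.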

[18] = Quantitative High-Throughput drug screen in 47 multiple myeloma cell lines against the NCATS MIPE library collection: JIM1_ECACC cell viability assay (AID 1918964)
Summary of the method: (§2)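 Approved and investigational drugs from MIPE 4.0 were added by pin tool to 500 cells per well. After 48 hours at 37C, ATP-based CellTiter-Glo luminescence indicated remaining viability.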

[19] = Quantitative High-Throughput drug screen in 47 multiple myeloma cell lines against the NCATS MIPE library collection: KMS21BM_JCRB cell viability assay (AID 1918974); conditions: ATP luminescence, 48 h; viability: at 45.8 µM (top of the series)
Summary of the method: as §2

MKL-1 = test: qHTS assay to identify novel small-molecules to repurpose for Merkel cell carcinoma treatment (AID 1296009); conditions: MCC and control cell lines, CellTiter-Glo viability, 72 h; series mostly up to 46 µM; also: nearly all actives have a fitted effect of over 60% in size
Summary of the method: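 CellTiter-Glo luminescence after 72 hr compound exposure at 37 degree celsius gave cell viability. Libraries NPC and MIPE were run as 8- and 11-point dose responses; RLUs normalized to DMSO (negative) and no-cell (cytotoxicity) controls.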

Measured: Potency
Potency is read from the fitted curve at half-maximal effect; tags tell the direction and shape of the fitted curve.

O=C(Nc1ccc(Cl)cc1)Nc1ccc(Cl)c(C(F)(F)F)c1
inconclusive: [1] 1 µM [inhibitor, full curve, poor fit] | [2] 26.4 µM [cytotoxic, single point] | [4] 26.6 µM [cytotoxic, single point] | [5] 4.73 µM [cytotoxic, full curve, poor fit] | [6] 26.6 µM [cytotoxic, single point] | [8] 11.9 µM [cytotoxic, partial curve] | [9] 20.3 µM [inhibitor, partial curve] | [10] 12.6 µM [inhibitor, partial curve, poor fit] | [11] 5.01 µM [inhibitor, partial curve, poor fit]
active: [3] 4.73 µM | [7] 11.9 µM

COC(=O)Nc1ccc(-c2nc(N3CCOCC3)c3cnn(C4CCN(Cc5cccnc5)CC4)c3n2)cc1
inconclusive: [2] 0.739 µM [cytotoxic, full curve, poor fit] | [8] 5.26 µM [cytotoxic, partial curve] | [12] 9.27 µM [cytotoxic, partial curve, poor fit] | [13] 11.7 µM [cytotoxic, partial curve] | [14] 11.7 µM [cytotoxic, partial curve, poor fit] | [15] 20.8 µM [cytotoxic, partial curve, poor fit] | [16] 14.7 µM [cytotoxic, partial curve, poor fit] | [11] 25.5 µM [inhibitor, single point] | [17] 0.118 µM [rising, full curve, poor fit] | [18] 0.264 µM [rising, full curve, poor fit] | [19] 0.0469 µM [rising, full curve, poor fit] | MKL-1 = 5.26 µM [inhibitor, full curve]
active: [1] 16.6 µM

CC(C=CC1=C(C)CCCC1(C)C)=CC=CC(C)=CC(=O)Nc1ccc(O)cc1
inconclusive: [1] 67.9 µM [inhibitor, single point] | [2] 47.8 µM [cytotoxic, single point] | [15] 0.851 µM [cytotoxic, full curve, poor fit] | [9] 39.3 µM [inhibitor, partial curve] | [18] 7.62 µM [cytotoxic, full curve] | [19] 30.3 µM [cytotoxic, partial curve, poor fit] | MKL-1 = 48.1 µM [inhibitor, single point]
active: [3] 3.82 µM | [4] 42.9 µM | [8] 42.9 µM | [13] 13.5 µM | [14] 2.4 µM | [17] 4.29 µM

C[C@@H]1COCCN1c1cc(C2(S(C)(=O)=O)CC2)nc(-c2cccc3[nH]ccc23)n1
active: [11] 18 µM

O=S(=O)(NCC1CC1)c1ccc(Nc2nccc(N3CCCc4cc(O)ccc43)n2)cc1
inactive: [11]

C=CC(=O)Nc1cccc(Oc2nc(Nc3ccc(N4CCN(C)CC4)cc3)ncc2Cl)c1
inconclusive: [14] 18.5 µM [cytotoxic, partial curve, poor fit] | [15] 20.8 µM [cytotoxic, partial curve, poor fit] | [17] 2.09 µM [cytotoxic, full curve, poor fit] | [18] 14.8 µM [cytotoxic, partial curve, poor fit] | [19] 2.09 µM [cytotoxic, full curve, poor fit]
active: [1] 13.2 µM | [2] 7.39 µM | [3] 0.469 µM | [4] 4.69 µM | [8] 18.7 µM | [12] 6.57 µM | [16] 2.93 µM

Cc1cc(Nc2ncc3cc(-c4c(Cl)cccc4Cl)c(=O)n(C)c3n2)ccc1F
inactive: [11]

COCCNCc1ccc(-c2cc3nccc(Oc4ccc(NC(=S)NC(=O)Cc5ccc(F)cc5)cc4F)c3s2)nc1
inconclusive: [11] 2.55 µM [inhibitor, full curve]

CO[C@@H](C)Cn1c(=O)n(C)c2cnc3ccc(-c4cncc(C(C)(C)O)c4)cc3c21
inconclusive: [11] 32.1 µM [inhibitor, partial curve, poor fit]

O=C(c1ccc(F)cc1)N1CCC[C@H](c2nc(-c3ccc(F)cc3)no2)C1
inconclusive: [19] 4.69 µM [cytotoxic, partial curve, poor fit]
inactive: [2] | [9] | [17] | [18]

CNC(=O)c1ccc(Nc2cc(Nc3ccccc3S(=O)(=O)C(C)C)c3cc[nH]c3n2)nc1
active: [4] 18.7 µM | [6] 9.35 µM | [13] 5.85 µM | [15] 9.27 µM | [16] 5.85 µM | [17] 0.118 µM | [18] 3.32 µM | [19] 0.418 µM
inconclusive: [1] 29.6 µM [inhibitor, single point]

Nc1ncnc2c1c(-c1cnc3[nH]ccc3c1)nn2C1CCCC1
inconclusive: [15] 9.27 µM [cytotoxic, partial curve, poor fit] | MKL-1 = 10.5 µM [inhibitor, partial curve]
active: [1] 16.6 µM | [2] 5.87 µM | [3] 0.0662 µM | [6] 0.526 µM | [8] 2.09 µM | [12] 1.47 µM | [13] 10.4 µM | [16] 1.85 µM | [18] 0.526 µM | [19] 1.05 µM

C#C[C@]1(O)CC[C@H]2[C@@H]3CCc4cc(OC5CCCC5)ccc4[C@H]3CC[C@@]21C
inconclusive: [3] 33.5 µM [cytotoxic, single point] | [4] 26.6 µM [cytotoxic, single point] | [5] 26.6 µM [cytotoxic, single point] | [6] 29.9 µM [cytotoxic, single point] | [7] 26.6 µM [cytotoxic, single point] | [9] 15.8 µM [inhibitor, partial curve] | [10] 14.1 µM [inhibitor, partial curve, poor fit] | MKL-1 = 21.1 µM [inhibitor, single point]

O=c1[nH]sc2cc(Cl)ccc12
inactive: [9]
inconclusive: [2] 33.3 µM [cytotoxic, single point] | [4] 33.5 µM [cytotoxic, single point] | [8] 18.8 µM [cytotoxic, single point] | [15] 29.3 µM [cytotoxic, single point] | [16] 29.3 µM [cytotoxic, single point]
active: [12] 10.4 µM | [13] 20.8 µM | [14] 20.8 µM
